Experimental data reported in PMC5004831, “Molecular and biochemical characterization of carbonic anhydrases of Paracoccidioides” (Genetics and Molecular Biology, 2016).

Assays:
[1] = target: T1, rCA4 (CA4), alpha-class carbonic anhydrase of Paracoccidioides (Paracoccidioides brasiliensis, UniProt B1PIT4); experiment: in-gel esterase activity, UV fluorescence; format: biochemical; conditions: native 6% PAGE with 1% starch; 100 mM phosphate pH 6.5, 37 °C
T1 construct: 32 kDa
T1 sequence (B1PIT4 1-301): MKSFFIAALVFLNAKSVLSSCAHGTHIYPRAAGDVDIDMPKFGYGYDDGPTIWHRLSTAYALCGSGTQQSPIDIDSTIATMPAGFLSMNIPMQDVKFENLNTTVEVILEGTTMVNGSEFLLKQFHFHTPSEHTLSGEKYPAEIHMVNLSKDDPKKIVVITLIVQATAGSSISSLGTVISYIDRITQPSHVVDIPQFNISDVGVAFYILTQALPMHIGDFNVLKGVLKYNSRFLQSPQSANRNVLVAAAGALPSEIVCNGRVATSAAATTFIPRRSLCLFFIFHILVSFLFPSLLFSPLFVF

[2] = target: T2, rCA1 (CA1), beta-class carbonic anhydrase of Paracoccidioides (Paracoccidioides lutzii, UniProt C1H4M3); experiment: in-gel esterase activity, UV fluorescence; format: biochemical; conditions: native 6% PAGE with 1% starch; 100 mM phosphate pH 6.5, 37 °C
T2 construct: gene PAAG_05716; complete cDNA, 282 residues, GST fusion (pGEX-4T-3) from E. coli, GST cut by thrombin; 33 kDa
T2 sequence (C1H4M3 1-282): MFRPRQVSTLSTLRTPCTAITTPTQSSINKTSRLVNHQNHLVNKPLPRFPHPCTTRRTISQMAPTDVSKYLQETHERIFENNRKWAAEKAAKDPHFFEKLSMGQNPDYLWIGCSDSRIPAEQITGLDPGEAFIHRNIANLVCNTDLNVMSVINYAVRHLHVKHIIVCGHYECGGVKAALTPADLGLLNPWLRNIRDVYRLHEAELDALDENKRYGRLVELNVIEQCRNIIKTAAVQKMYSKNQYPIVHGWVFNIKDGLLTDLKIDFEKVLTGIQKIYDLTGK

Compound: CC(=O)Oc1ccc2c(C)cc(=O)oc2c1 [4-metillumbeliferil acetate]
- in-gel esterase activity, UV fluorescence [1]: The proteins were visualized by the halo of hydrolysis (Figure 2D)
- in-gel esterase activity, UV fluorescence [2]: The proteins were visualized by the halo of hydrolysis (Figure 2D)
